Test results taken from PubChem BioAssay.
The shares of active, inactive and inconclusive entries below differ from those in the screen. Activity calls are given as the source filed them.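 How the source made its calls, unless noted: active means thallium flux slope more than 3 SD above or below the plate's solvent-only control mean, mostly below; inconclusive means the two repeat wells disagreed; inactive means no significant shift from solvent-only controls.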

What was measured:
[1] = molecular target: Solute carrier family 12 member 5 (Homo sapiens) (UniProt Q9H2X9); assay: retest of KCC2 transport modulation, ouabain-free – cell-based, HEK293 KCC2, thallium flux, FluoZin2, secondary assay 2, confirmation (AID 1715); conditions: HEK293-KCC2, thallium flux FluoZin2 fluorescence; at 10 µM; actives lie on both sides; F/F0 rise rate, 10–20 s post-thallium;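 further: raw slope with 0.1% DMSO as baseline and bumetanide as block control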
Chain of UniProt Q9H2X9 (Q9H2X9 whole entry, looked up): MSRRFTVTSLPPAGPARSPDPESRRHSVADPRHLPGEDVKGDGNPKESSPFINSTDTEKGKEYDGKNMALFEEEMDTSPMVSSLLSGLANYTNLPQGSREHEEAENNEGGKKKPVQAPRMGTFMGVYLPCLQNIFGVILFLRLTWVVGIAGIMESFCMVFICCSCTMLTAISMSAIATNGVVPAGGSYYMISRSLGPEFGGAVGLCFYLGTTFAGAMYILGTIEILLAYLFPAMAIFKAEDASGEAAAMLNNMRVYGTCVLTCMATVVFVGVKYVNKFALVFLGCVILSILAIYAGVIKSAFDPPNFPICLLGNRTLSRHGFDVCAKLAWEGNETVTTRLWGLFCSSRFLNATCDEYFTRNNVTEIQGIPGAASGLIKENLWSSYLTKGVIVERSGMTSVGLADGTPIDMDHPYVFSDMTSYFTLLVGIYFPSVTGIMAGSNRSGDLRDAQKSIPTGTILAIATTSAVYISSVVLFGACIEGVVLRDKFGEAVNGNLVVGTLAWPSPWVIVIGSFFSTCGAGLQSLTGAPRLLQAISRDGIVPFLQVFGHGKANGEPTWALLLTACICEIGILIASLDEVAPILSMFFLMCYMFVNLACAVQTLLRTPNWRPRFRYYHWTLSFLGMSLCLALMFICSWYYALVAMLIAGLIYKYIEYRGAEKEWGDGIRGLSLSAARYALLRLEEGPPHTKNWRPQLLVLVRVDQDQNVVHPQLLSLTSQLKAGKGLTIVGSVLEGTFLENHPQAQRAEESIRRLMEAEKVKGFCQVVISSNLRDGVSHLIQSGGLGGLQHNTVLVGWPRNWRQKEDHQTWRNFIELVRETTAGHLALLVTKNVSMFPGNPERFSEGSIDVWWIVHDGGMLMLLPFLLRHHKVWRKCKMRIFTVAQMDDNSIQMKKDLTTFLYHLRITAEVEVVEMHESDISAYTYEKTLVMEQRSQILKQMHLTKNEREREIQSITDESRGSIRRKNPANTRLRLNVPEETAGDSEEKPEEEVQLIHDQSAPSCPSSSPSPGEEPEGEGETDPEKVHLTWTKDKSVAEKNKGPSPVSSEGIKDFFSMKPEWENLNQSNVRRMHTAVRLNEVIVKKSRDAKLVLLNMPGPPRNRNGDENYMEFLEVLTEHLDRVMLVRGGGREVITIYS

[2] = compound effects on native HEK Tl+ uptake – HEK cells, counterscreen 1, counter-screen for KCC2 modulator project, confirmation (AID 1716;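 active means thallium flux rate significantly above the same plate's solvent-only control wells, beyond their mean plus 3 SD; inconclusive means the two replicate wells gave conflicting results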); conditions: HEK293 parental cells, thallium flux FluoZin2, ouabain; at 10 µM; baseline-ratio fluorescence slope, 10–20 s after thallium
[3] = molecular target: Solute carrier family 12 member 5 (Homo sapiens) (UniProt Q9H2X9); assay: modulation of KCC2 thallium flux in HEK cells – cell-based, ouabain, retest, confirmation (AID 1717;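 active means thallium flux slope beyond 3 SD from same-plate DMSO control mean in most replicates, usually higher, sometimes lower; inconclusive means repeat tests gave conflicting results; inactive means no significant difference from controls in most replicates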;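 further: slope of initial-normalized fluorescence between seconds 10 and 20 after thallium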); conditions: HEK293-KCC2, thallium flux FluoZin2 fluorescence, at 10 µM, bidirectional: low = inhibitor, high = activator
[4] = native HEK Tl+ uptake effects, second counter-screen – HEK cells, counterscreen 2, counter-screen for KCC2 modulator project, confirmation (AID 1718;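 active means thallium flux slope above the same plate's solvent-control mean plus 3 SD in both duplicate wells; inconclusive means duplicate wells that disagreed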;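 further: run without ouabain in cells lacking the KCC2 cotransporter; slope of fluorescence scaled to its starting value between 10 and 20 s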); conditions: HEK293 parental, thallium flux FluoZin-2 fluorescence slope; at 10 µM
Method in brief: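 Assay system – untransfected HEK cells, thallium influx assay · Buffer or medium – HBSS with 20 mM HEPES for dye loading · Doses – single 10 µM final compound dose, 0.1% DMSO · Times – 37 °C overnight growth, 48 min FluoZin2-AM loading · Detection – FluoZin-2 fluorescence kinetics · Benchmarks – bumetanide 2 mM as positive control · Repeats – Per-replicate slope values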

Structure (SMILES)	normalized thallium flux [1]	thallium flux rate (normalised fluorescence) [2]	raw Tl+ flux slope (below DMSO = inhibition, above = activation) [3]	thallium flux slope [4]
O=c1c(-c2cnn(-c3ccccc3)c2)coc2cc(O)ccc12	active: 0.0258	inactive: 0.00756	inconclusive: 0.0181	
Cc1cc(NC(=O)CSc2ccc(-c3ccccc3)nn2)no1	active: 0.0243	inconclusive: 0.00539	active: 0.013	
Cc1cc(/C=C2\NC(=S)N(C)C2=O)ccc1N1CCCC1	inconclusive: 0.0276	inconclusive: 0.00806	inactive: 0.0162	
CC1CCN(c2c(NCC3CCC(C(=O)NCCc4ccccc4)CC3)c(=O)c2=O)CC1 (centres undefined)	inconclusive: 0.028	inactive: 0.00718	inactive: 0.0181	
Fc1ccccc1-n1c(-c2ccc3ccccc3n2)n[nH]c1=S	inconclusive: 0.0287	inconclusive: 0.00745	inconclusive: 0.0255	
Cc1ccc2oc(-c3ccc(C)c(NC(=S)NC(=O)c4cccs4)c3)nc2c1	inactive: 0.0342	inconclusive: 0.00725	inconclusive: 0.0244	
CCOC(=O)N1CCN(C(=S)NC(=O)C23CC4CC(CC(C4)C2)C3)CC1	inactive: 0.0369	active: 0.0118	inconclusive: 0.0307	
CCOc1ccccc1N1CCN(c2nc3ccccc3nc2C(C#N)C(=O)OC)CC1 (centres undefined)	inactive: 0.0289	inactive: 0.00677	inactive: 0.0182	
c1ccc(OCc2nn3c(C4CCCCC4)nnc3s2)cc1	active: 0.0244	inconclusive: 0.0064	active: 0.0126	
O=C(Cc1ccccc1)Nc1cccc(-c2nnc(-c3ccco3)o2)c1	inactive: 0.0301	inactive: 0.00676	inconclusive: 0.0164	
N#Cc1nc(COc2ccccc2F)oc1NCc1ccc(F)cc1	inconclusive: 0.0273	inactive: 0.00749	inconclusive: 0.019	
COc1cc(OC)c(C2=NOC(C(=O)N3CCc4ccccc4C3)C2)cc1Cl (centres undefined)	active: 0.0237	inactive: 0.00741	inconclusive: 0.0145	
Cc1ccccc1-n1nnnc1SCc1ncc(-c2ccccc2)o1	inconclusive: 0.0261	inconclusive: 0.00651	inactive: 0.0164	
CS(=O)(=O)N(CC(O)CON=C1c2ccccc2-c2ccccc21)c1ccc(F)cc1 (centres undefined)	inactive: 0.031	inconclusive: 0.00702	inactive: 0.0192	
CCSC1=C(C#N)C2(CCCCC2)C(C#N)=C(N)N1	inactive: 0.0304	inconclusive: 0.00549	inactive: 0.0194	
CC(=O)NC(C)C(=O)OCC(=O)c1ccc(-c2ccccc2)cc1 (centres undefined)	inconclusive: 0.0267	inactive: 0.00788	inactive: 0.0175	inactive: 0.0119
COc1ccc(/C(O)=C/Sc2nnc(Cc3ccccc3)o2)cc1	active: 0.0246	inactive: 0.00653	active: 0.0132	inconclusive: 0.0103
CCCOc1ccc(C(=O)NNC(=S)NC(=O)c2ccco2)cc1	active: 0.0839		inconclusive: 0.0455	
CCN(C(=S)NC(=O)C1CCCC1)C1CCCCC1	inactive: 0.038	inconclusive: 0.0172		inconclusive: 0.0156
CCOc1ccc(C(C(=O)NC2CCCC2)N(CCCO)C(=O)c2ccc(-c3ccccc3)[nH]2)cc1 (centres undefined)	inconclusive: 0.0315		active: 0.0171	
Fc1ccc(NC(=S)Nc2ccc(F)c(Cl)c2)cc1Cl	inconclusive: 0.0245	active: 0.00594		inconclusive: 0.0087
CC(C)(C)C(=O)/C=c1\[nH]c(=O)/c(=C\c2ccc(C#N)cc2)s1	inactive: 0.0372	inconclusive: 0.0347		inconclusive: 0.0169
CC1=C(/C=C/C(C)=N\NC(=O)c2ccncc2)C(C)(C)CCC1	inconclusive: 0.0382	active: 0.0235		active: 0.0261
COC(=O)c1sc(NC(=S)NC(=O)c2ccccc2F)nc1C	inconclusive: 0.0345	active: 0.0331	active: 0.0402	active: 0.0216
CN(C)S(=O)(=O)c1cc(NC(=O)CSc2ncc(C(F)(F)F)cc2Cl)ccc1Cl	inconclusive: 0.0281		inactive: 0.0187	
Cc1cccc(Cn2c(O)c(N=NC(=S)Nc3ccccc3F)c3ccccc32)c1	inactive: 0.0366	inconclusive: 0.0081	inconclusive: 0.0229	inactive: 0.0105
